US11466066B2, “Variants of human BMP7 protein” (ELI LILLY AND COMPANY, priority 2017, dated 2022)

Legend:
[1] = Stir-induced aggregation (solubility) assay; format: physicochemical; settings: 40 μg/mL, pH 7.4, stirred 400 rpm
Description: Solubility/physical stability of human BMP7 protein and human BMP7 protein variants may be measured in a stir-induced aggregation assay. Proteins are diluted to 40 μg/mL with assay buffer (50 mM sodium phosphate, 150 mM NaCl, pH 7.4) to a total volume of 2 mL. This solution may be put in a 7 mL glass vial containing one ‘flea’ stir bar and stirred at 400-rpm at room temperature. At periodic intervals (typically 0, 30, 60, 90, 120, and 150 minutes) a 150 μL aliquot may be withdrawn and centrifuged for 2 minutes at 16,000×g in a 1.5 mL tube. The supernatant (120 μL) may be transferred to an HPLC vial and the amount of remaining protein may be determined by reversed-phase HPLC under the following conditions: Zorbax C8 SB-300® column (3.5 micron, 4.6×50 mm), mobile phase: A buffer=0.1% TFA (v/v) in water, B buffer=0.085% TFA (v/v) in acetonitrile; flow rate at 1 mL/minute; column heated to 60° C.; autosampler cooled to 10° C., 214 nm UV detection, 80 μL injection, and 20 minute run time using the linear gradient indicated below. From the HPLC chromatograms (not shown) the protein peak or peaks (e.g., mature and pro domains) are integrated and percent change from initial peak area may be calculated.

[2] = tested on: ADSC/ECFC co-culture stimulated with VEGF; test: VEGF-driven cord formation; format: cell-based; settings: 100 ng/ml; 10 ng/ml VEGF; 96 hours
Description: An in vitro endothelial cord formation assay, a surrogate of angiogenesis, may be used to investigate the role of human BMP7 proteins on various growth factor established cords including, but not limited to, VEGF, basic FGF, and EGF established cords. Endothelial cord forming cells (ECFCs; passage 4-10 suitable for cord formation) may be cultured in EGM-2 MV (Lona) media containing a final concentration of 10% FBS and passaged onto type 1 collagen (fibrillar) coated flasks prior to seeding into the cord formation assay in vitro. […]
An ADSC/ECFC co-culture was unstimulated (basal) or stimulated with 10 ng/ml VEGF and treated simultaneously with PBS or 100 ng/ml human pro-BMP7 variant F9 or 100 nM sunitinib for 96 hours prior to immunohistochemistry for CD31 (green), α-smooth muscle actin (red), and Hoechst 33342 to stain all nuclei (blue). Resulting CD31-positive endothelial cords were visualized and quantitated using high content imaging. […]

[3] = target: T1, Coco (Homo sapiens, UniProt Q8N907); test: BMP inhibitor activity, hepcidin promoter luciferase: Coco; format: cell-based
T1 construct: purchased R&D Systems
T1 sequence (Q8N907 23-189): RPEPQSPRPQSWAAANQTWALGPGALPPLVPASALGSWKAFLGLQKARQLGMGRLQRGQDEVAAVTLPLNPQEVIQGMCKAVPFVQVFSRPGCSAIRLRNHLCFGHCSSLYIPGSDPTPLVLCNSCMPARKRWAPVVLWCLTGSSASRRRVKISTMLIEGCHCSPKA
Description: Briefly described, Hep3B2 cells stably transfected with a hepcidin promoter luciferase construct (hereinafter, referred to as Hep3B2_HepPro_luc cells) were used for BMP inhibitor experiments. Hep3B2_HepPro_luc cells may be plated at 30,000 cells per well in a tissue culture treated 96 well plate in DMEM (Hyclone) 5% FBS (Gibco) supplemented with non-essential amino acids (Hyclone) and 200 μg/ml gentecin (Hyclone) for 24 hours. Cells were then starved in OMEM+0.2% BSA for 5 hours. Cells were treated with a mixture of human BMP7 proteins and variants thereof in OMEM (Gibco)+0.2% BSA (Gibco) for 18 hours then developed for luciferase activity utilizing Luciferase reporter Gene Assay Kit (Roche). BMP7 proteins were added at concentrations in the linear range of the assay, at 1 nM and 100 pM. Inhibitors were added at various concentrations in molar excess of the particular BMP7 protein being tested. All BMP inhibitors except Follistatin were purchased from R&D Systems. Follistatin and BMP7 proteins and variants thereof were generated at Eli Lilly and Company.

B1: Human pro-BMP7 Variant F9: wild type pro-domain + variant mature BMP7 F9 (402 aa), SEQ ID NO: 16 (protein)
chain: DFSLDNEVHSSFIHRRLRSQERREMQREILSILGLPHRPRPHLQGKHNSAPMFMLDLYNAMAVEEGGGPGGQGFSYPYKAVFSTQGPPLASLQDSHFLTDADMVMSFVNLVEHDKEFFHPRYHHREFRFDLSKIPEGEAVTAAEFRIYKDYIRERFDNETFRISVYQVLQEHLGRESDLFLLDSRTLWASEEGWLVFDITATSNHWVVNPRHNLGLQLSVETLDGQSINPKLAGLIGRHGPQNKQPFMVAFFKATEVHFRSIRSTGSKQRSQNRSKTPKNQEALRMANVAENSSSDQRQACKKHELYVSFRDLGWQDWIIAPEGYAAGYCEGECAFPLNSYMNATNHALVQTLVHVINPETVPKPCCAPTQLGAISVLYFDDSSNVILKKWRNMVVRACGCH
Percent of Material Precipitated ([1]; 0 minutes): 0%
Percent of Material Precipitated ([1]; 30 minutes): 9%
Percent of Material Precipitated ([1]; 60 minutes): 23%
Percent of Material Precipitated ([1]; 90 minutes): 36%
Percent of Material Precipitated ([1]; 120 minutes): 43%
Percent of Material Precipitated ([1]; 150 minutes): 55%
Connected Tube Area - VEGF (% PBS) [2]: 18.66 ± 3.72%
% inhibition ([3]; molar excess 0.1X): −35.4%
% inhibition ([3]; molar excess 1X): −27.5%
% inhibition ([3]; molar excess 10X): 7.0%
